Reference: PubChem BioAssay AID485344 (National Center for Advancing Translational Sciences (NCATS), 2010)
The campaign covered roughly 340,000 compounds. About 6,900 (2%) were called active. Rule as the data show it: active = inhibition above about 30%; inactive = below that, where a call was filed. The list shows a part of the results, in another mix than the full data. Where no call is shown, the source filed none.

target: D(2) dopamine receptor (Homo sapiens) (UniProt P14416); assay: HTS Assay for Allosteric Antagonists of the Human D2 Dopamine Receptor: Primary Screen for Antagonists; conditions: HEK293 TREx D2 cells, calcium flux, dopamine EC80; at 10 µM; stronger effect = higher value; also: 0% is about no effect
Procedure, shortened: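 Calcium flux kinetic readout in an inducible HEK293 TREx D2 line plated overnight at 30 C. After 180 s compound exposure, an EC80 dopamine challenge follows with another 180 s kinetic read to detect antagonism.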

UniProt P14416, sequence (P14416 whole entry, looked up): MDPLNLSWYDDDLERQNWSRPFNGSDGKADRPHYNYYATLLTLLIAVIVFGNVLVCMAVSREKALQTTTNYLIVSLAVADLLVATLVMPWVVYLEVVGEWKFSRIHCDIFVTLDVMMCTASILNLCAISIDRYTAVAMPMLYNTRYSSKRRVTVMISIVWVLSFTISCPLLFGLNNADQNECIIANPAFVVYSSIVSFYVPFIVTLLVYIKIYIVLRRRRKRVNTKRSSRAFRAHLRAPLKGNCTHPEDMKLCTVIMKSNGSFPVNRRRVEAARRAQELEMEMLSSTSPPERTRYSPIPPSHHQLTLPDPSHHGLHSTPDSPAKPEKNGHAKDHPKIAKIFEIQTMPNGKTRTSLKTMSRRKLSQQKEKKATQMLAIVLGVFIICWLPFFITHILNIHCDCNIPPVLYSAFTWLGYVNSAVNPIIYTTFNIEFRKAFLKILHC

Compound	inhibition
CC1CCCN(CCOCCOc2ccccc2-c2ccccc2)C1 (stereo not drawn)	active: 80.4%
COc1cccc(C2C(C(=O)Nc3ccc(Cl)cc3)=C(C)Nc3nc4ccccc4n32)c1 (stereo not drawn)	11.2%
CCC(C)Sc1oc(-c2ccco2)nc1S(=O)(=O)c1ccc(C)cc1 (stereo not drawn)	-16.9%
Cc1ccc(CNc2ncnc3c2cnn3-c2ccc(Cl)cc2)cc1	-28%
COc1cccc(CC(=O)Nc2ccc(-c3nc4ccccc4s3)cc2)c1	-10.9%
COc1ccccc1C1Nc2c(sc3nc(C)cc(C)c23)C(=O)N1c1ccccc1 (stereo not drawn)	-4.87%
COc1ccc2c(c1)c1c(c(=O)n(-c3ccc(C)cc3)c(=O)n1CC(=O)NCc1ccc(C)cc1)n2C	1.34%
COc1ccc(Cl)cc1NC(=O)c1nnn(Cc2cccc(C(F)(F)F)c2)c1N	5.56%
CCN1CCN(c2nc(Nc3ccc(C)c(C)c3)nc(N)c2[N+](=O)[O-])CC1	active: 51.5%
COc1ccc(OCC(=O)Nc2cc(-c3nc4ccccc4s3)ccc2C)cc1	7.05%
Cc1cccc(N2CCN(S(=O)(=O)c3ccc(-c4cc(C(F)(F)F)on4)s3)CC2)c1C	3.83%
Cc1ccccc1OCC(=O)Nc1ccc2nc(SCC(=O)N3CCc4ccccc43)sc2c1	-6.45%
O=C(C1CCCN(S(=O)(=O)c2ccc(Br)s2)C1)N1CCN(c2cccc(Cl)c2)CC1 (stereo not drawn)	2.96%
CCOc1cc2[nH]c(=O)n(CCCCC(=O)N3CCN(c4cccc(Cl)c4)CC3)c(=O)c2cc1OCC	-18.7%
Cc1ccc(CN2CCN(Cc3cccc4c3OCO4)CC2CCO)cc1 (stereo not drawn)	active: 88.2%
CCOc1ccccc1C(=O)NC(C)c1ccc2c(c1)OCO2 (stereo not drawn)	active: 39.9%
CCc1ccc(CN2CCc3nc(Nc4ccccc4)ncc3C2)cc1	1.61%
Cc1cccc2sc(N(Cc3cccnc3)C(=O)c3cccs3)nc12	-13.4%
CCOC(=O)c1c(C)[nH]c(CCC(=O)NCc2ccc(F)cc2)c1C	5.89%
CC(=O)Nc1ccc(NC(=O)c2cc3sccc3n2Cc2ccc(F)cc2)cc1	-6.65%
O=C(COC(=O)c1ccc(Cl)c(S(=O)(=O)N2CCCCC2)c1)NCC1CCCCC1	active: 43.8%
COc1cc2[nH]c(=O)n(CCCC(=O)NCc3ccc(Cl)cc3)c(=O)c2cc1OC	-4.83%
Cc1ccc(NC(=O)C(=O)NCC(c2cccnc2)N2CCN(c3ccccc3F)CC2)cc1Cl (stereo not drawn)	-21.4%
CCc1ccccc1Nc1nn2c(=O)c3ccc(C(=O)NC(C)c4ccccc4)cc3nc2s1 (stereo not drawn)	6.52%

Compound	inhibition
COc1ccccc1NC(=O)c1sc2nc(C)c(C(=O)Nc3ccc(C)cc3C)c(-c3cccs3)c2c1N	-10.7%
CCOC(=O)c1cc(-c2ccccc2)n(CCCC(=O)Nc2cccc(C)c2C)c1C	-2.78%
Cc1[nH]c(=O)[nH]c(=O)c1S(=O)(=O)N1CCN(c2ccccc2Cl)CC1	0.205%
O=C(O)CCn1c(=O)c2cccn2c2cccnc21	8.47%
COC(=O)c1ccc(NC(=O)CN2C(=O)CCc3cc(S(=O)(=O)N4CCCCC4)ccc32)cc1	-26.5%
COc1ccc(CCNC(=O)c2n[nH]c3ccccc23)cc1	active: 41.8%
O=C1CC(c2nnc(Cc3ccc(F)cc3Cl)o2)CN1c1ccccc1 (stereo not drawn)	-16.2%
COC(=O)c1ccc(NC(=O)CSCc2ccccc2C)cc1	active: 34.6%
CC(C)(C)c1ccc(OCC(O)CN2CCN(c3ccccn3)CC2)cc1 (stereo not drawn)	active: 86.6%
O=C(CN1C(=O)COc2ccc(S(=O)(=O)N3CCCC3)cc21)N1CCN(c2ccc(F)cc2)CC1	-11.9%
Cc1cccc(-n2c(Cc3ccccc3)nnc2SCc2nc(-c3cccs3)no2)c1	2.76%
O=C1c2[nH]nc(-c3ccccc3O)c2C(c2ccccc2F)N1Cc1cccnc1 (stereo not drawn)	17.3%
COCCNc1ccc(-c2nc(-c3ccco3)no2)cc1[N+](=O)[O-]	10.5%
Cc1cccc(Nc2nnc(-c3ccc(C)c(S(=O)(=O)NCC4CCCO4)c3)c3ccccc23)c1 (stereo not drawn)	-18.1%
CCOC(=O)c1ccc(N2C(=O)c3n[nH]c(-c4ccco4)c3C2c2ccc(O)c(OCC)c2)cc1 (stereo not drawn)	20.8%
Cc1cc(C)nc(NC(=NCCc2c[nH]c3ccc(Cl)cc23)NC(=O)c2ccccc2C)n1	-2.67%
COC(=O)C1=C(C)NC(=O)C1(NC(=O)c1cc(OC)c(OC)c(OC)c1)C(F)(F)F (stereo not drawn)	-1.86%
CCOC(=O)c1c(NC(=O)c2ccc(S(=O)(=O)N3CCC(C)CC3)cc2)sc2c1CCN(CC)C2	11.5%
CCOC(=O)c1cc(C)n(CC2CCC(C(=O)Nc3cccc(C)c3)CC2)c1C (stereo not drawn)	12.8%
C=Cc1ccc(Cn2nc(-c3ccc(C)cc3)ccc2=O)cc1	12.3%
Cc1cccc(-n2cc(-c3ccccc3)c3c(NC4CCCC4)ncnc32)c1	5.06%
CCOC(=O)c1c(S(=O)(=O)N2CCCC(C(=O)Nc3cc(C)ccn3)C2)c(C)n(C)c1C (stereo not drawn)	-2.5%
CCOC(=O)c1ccc(NC(=O)CCC(=O)N2Cc3ccccc3Oc3ncccc32)cc1	9.02%
COc1ccc(OC)c(NC(=O)C2CCN(S(=O)(=O)c3ccc4c(c3)CCCC(=O)N4)CC2)c1	7.03%
